Assay results: ChEMBL document CHEMBL4888484, “Replenishing the malaria drug discovery pipeline: Screening and hit evaluation of the MMV Hit Generation Library 1 (HGL1) against asexual blood stage Plasmodium falciparum ,using a nano luciferase reporter read-out” (2022)
Screen size: about 150,000 compounds; about 540 (0.36%) showed an effect of 50% or more. Some of the results follow.

Each compound was assayed on Plasmodium falciparum (assay: Primary screen in NF54 nanoGlo assay, in single point, at 2uM, 72h; a lower Z score goes with more inhibition). Settings: timepoint 72 hour.
Type: functional, Erythrocyte
For `CCCN1C(=O)c2cc3oc(C)cc3n2C[C@@]1(C)C(=O)NC1CCCCC1`, the “% Inhibition” value was 11% and the Z score was -2.09.
`Cc1cc(F)cc2c1N(CC(=O)NC1CCOCC1)CCC2` was tested, and the “% Inhibition” value was -6% and the Z score was 1.19.
In the case of `CCCN(C(=O)NCC1CCCO1)C1C2CCOC2C1(C)C` (centres undefined), the “% Inhibition” value is reported as 11% and the Z score is reported as -1.27.
In the case of `CCC[C@H](C)c1nc(N2CCN(C(=O)Cc3ccc(OC)cc3)CC2)c2cnn(-c3ccccc3)c2n1`, the “% Inhibition” value is reported as 46% and the Z score is reported as -6.22.
In the case of `CC(=O)N[C@H]1C[C@@H](c2cccc(Cn3cccn3)c2)O[C@@H](c2ccccc2)C1`, the “% Inhibition” value is reported as 4% and the Z score is reported as -0.87.
For `O=C1[C@H](c2ccccc2)CC2(CCN(Cc3ncc[nH]3)CC2)CN1C1CC1`, the “% Inhibition” value was 3% and the Z score was -0.61.
In the case of `COC[C@@H](c1ccccn1)N(C)C(=O)CCC(=O)Nc1nncs1`, the “% Inhibition” value is reported as -11% and the Z score is reported as 1.38.
`Cc1c(Cl)ccc2c(C(=O)N3CCC(C)CC3)cc(-c3ccc4c(c3)OCO4)nc12` was tested, and the “% Inhibition” value was -10% and the Z score was 1.36.
In the case of `Cc1ccc(CC(=O)Nc2cc(C(F)(F)F)n(C)n2)cn1`, the “% Inhibition” value is reported as -6% and the Z score is reported as 0.61.
For `CC(C)N1C(=O)CN(C(=O)c2cc3cccn3cn2)CC1(C)C`, the “% Inhibition” value was 1% and the Z score was -0.12.
With `CC1(C)CCC[C@@H]1NC(=O)NCCc1cnn(-c2ccccc2)c1` the “% Inhibition” value was -10% and the Z score was 1.35.
`CC(C)C(NC(=O)COc1ccccc1)C(=O)NCC(c1ccccc1Cl)c1c[nH]c2ccccc12` (centres undefined) was tested, and the “% Inhibition” value was 39% and the Z score was -3.28.
In the case of `CO[C@H]1CN(c2cccc(F)c2)C12CCN(C(=O)Cc1ccccc1)CC2`, the “% Inhibition” value is reported as -3% and the Z score is reported as 0.34.
For `C[C@@H](c1ccccc1)n1cnc2c1c(=O)n(C1CCCCC1)c(=O)n2-c1ccccc1Cl`, the “% Inhibition” value was -10% and the Z score was 0.9.
For `CN(CC1(CO)CCOCC1)C(=O)Nc1cc(F)cc(Cl)c1`, the “% Inhibition” value was -8% and the Z score was 0.75.
With `Fc1cccc2ncnc(N3CCN(C4CC4)CC3)c12` the “% Inhibition” value was -2% and the Z score was 0.3.
In the case of `CCn1c(=O)sc2cc(S(=O)(=O)N3CCC(C(=O)Nc4ccccc4F)CC3)ccc21`, the “% Inhibition” value is reported as 7% and the Z score is reported as -0.88.
`O=C(O)[C@@]1(Cc2ccc(F)cc2F)CCCN(c2cnccn2)C1` was tested, and the “% Inhibition” value was 0% and the Z score was 0.06.
With `Cn1nccc1C1(O)CCN(c2ncncc2Cl)CC1` the “% Inhibition” value was 3% and the Z score was -0.37.
For `OCCN1CCN(C2CCN(Cc3cnc(NCc4ccccc4)nc3)CC2)CC1`, the “% Inhibition” value was 4% and the Z score was -0.54.
`CCC(=O)NCc1csc(C2CCN(C(=O)c3cccs3)CC2)n1` was tested, and the “% Inhibition” value was -16% and the Z score was 2.1.
In the case of `CC(C)(C(=O)NCCS(N)(=O)=O)c1ccc(Cl)cc1F`, the “% Inhibition” value is reported as -8% and the Z score is reported as 0.83.
In the case of `O=C(NCc1ccnc(N2CCCC2=O)c1)c1nc(-c2cccs2)cs1`, the “% Inhibition” value is reported as -3% and the Z score is reported as 0.39.
With `CC(C)OCC(=O)Nc1ncc2[nH]ccc2c1Br` the “% Inhibition” value was -12% and the Z score was 2.02.
With `COc1ccc2c(c1)CCN=C2C[C@H]1CN(C(=O)Cc2ccccc2)CC[C@H]1CC(=O)O` the “% Inhibition” value was 20% and the Z score was -2.32.
`Cc1ccc(CN2C[C@]34C=C[C@H](O3)C(C(=O)N(C)C(C)C)C4C2=O)cc1C` (some centres undefined) was tested, and the “% Inhibition” value was 6% and the Z score was -0.78.
For `Cc1nnc(CN(C)Cc2c[nH]cn2)s1`, the “% Inhibition” value was 4% and the Z score was -0.58.
With `Cn1ccnc(NC(=O)NCc2ccc(C3CC3)cc2)c1=O` the “% Inhibition” value was 1% and the Z score was -0.15.
With `Cc1ccnc(N2CCc3[nH]nc(C4CC4)c3C2)n1` the “% Inhibition” value was -20% and the Z score was 3.7.
`CCc1ccc(S(=O)(=O)Nc2nc3n(c2C(=O)c2ccc(OC)cc2)CCC3)cc1` was tested, and the “% Inhibition” value was -5% and the Z score was 0.84.
`Cn1ccc2c(-c3cnc4c(C(N)=O)cnn4c3)ccnc21` was tested, and the “% Inhibition” value was 8% and the Z score was -1.33.
`COc1cccc(C(=O)N2C[C@@H]3CN(C(C)C)C[C@]3(C(=O)N3CCCC3)C2)c1C` was tested, and the “% Inhibition” value was -23% and the Z score was 3.09.
For `CC1(C)C[C@@](C)(c2ccccc2)c2ccccc2N1C(=O)c1ccccc1Cl`, the “% Inhibition” value was -10% and the Z score was 1.36.
With `Cc1nc(C)c(CN(CC(F)(F)F)C2CC2)s1` the “% Inhibition” value was -3% and the Z score was 0.45.
With `CCOC(=O)c1nc([C@H](CC(C)C)NC(=O)Nc2ccccn2)n[nH]1` the “% Inhibition” value was -3% and the Z score was 0.26.
`Cc1cc(NC(=O)N(CCO)Cc2ccco2)ccc1N1CCCC1=O` was tested, and the “% Inhibition” value was -1% and the Z score was 0.28.
For `Cn1cc(CCC(=O)N2CCCN(C3CCCCC3)CC2)cn1`, the “% Inhibition” value was 15% and the Z score was -1.85.
For `CC(C)Cc1ccc(CC(=O)NC[C@H](O)C2CCOCC2)cc1`, the “% Inhibition” value was -13% and the Z score was 1.76.
In the case of `CN1C(=O)CN(C(=O)[C@@H]2CCCO2)c2ccccc21`, the “% Inhibition” value is reported as -13% and the Z score is reported as 1.26.
`Cc1nc(Cn2cc(Br)ccc2=O)oc1C` was tested, and the “% Inhibition” value was -14% and the Z score was 1.3.
For `Cc1csc(C(=O)NC[C@H]2CCN2C2CCOCC2)n1`, the “% Inhibition” value was -10% and the Z score was 1.38.
`Cc1sc(C(N)=O)cc1S(=O)(=O)N1CCOc2cccc(F)c21` was tested, and the “% Inhibition” value was -10% and the Z score was 1.57.
